# This sample is rich in variants without activity.
# B1: TPR 5TU (parent)
# chain: GGAUCUUCUCGAUCUAACAAAAAAGACAAAUCUGCCACAAAGCUUGAGAGCAUCUUCGGAUGCAGAGGCGGCAGCCUUCGGUGGCGCGAUAGCGCCAACGUUCUCAACUAUGACACGCAAAACGCGUGCUCCGUUGAAUGGAGUUUAUCAUG
# Variants of: B1
# Assay: polymerase ribozyme fitness, log enrichment relative to wild type (log ratio); higher = more active; in vitro selection for triplet polymerase activity
# Method in brief: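 Only genotypes with ≥10 input reads and ≥1 read per output were kept after Illumina sequencing of input and output libraries. These libraries were PCR-built, transcribed mutants of each subunit of a heterodimeric triplet polymerase ribozyme, each put through one triplicate in vitro selection round with frozen incubation at −7 °C, gel excision of extended constructs, streptavidin-bead capture and RT-PCR. Fitness is a logarithmic ratio of genotype enrichment to wild-type enrichment, from inverse-variance-weighted replicate averages, with the logarithm in base 2.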
row,Variant,polymerase ribozyme fitness (log ratio)
1,A30G C63A A73G C108G C129G,≤ -4.2
2,U31A G86U,-0.886
3,A30U C95G,-3.94
4,U31C A49C C79U C96A U111G G143U A150C,≤ -4.2
5,U31A G50A C51G G59A G68C G86C G94U G124U,≤ -4.2
6,C32G G58U A60U G92U A137C,≤ -4.2
7,C32G A119C,≤ -4.2
8,U31C U56A G68A G92A A98C G140U G141U,≤ -4.2
9,U31G C38U G46A G59U C96G C118U U145C,≤ -4.2
10,A30U U31C U77C U82C C129G,≤ -4.2
11,U31G C75A U77G G86A C114A C125U,≤ -4.2
12,U31G U145A,0.652
13,A30G G42A A47C C95U A98C C116U G141C U144A,≤ -4.2
14,A30C G46C C95A U104C C114U A142C,≤ -4.2
15,A30G C87U U101A U109C A115U A120U A122U U145G G152A,≤ -4.2
16,A30U U56A G62A G126A,-3.5
17,A30C C35U C54U C85U A121U,≤ -4.2
18,U31G U55A A91G C95G U102G G133A U144A A147U,≤ -4.2
19,A30U G94U G143C,≤ -4.2
20,A30U U44C A121G U139A,≤ -4.2
21,A30G A49C C54A C69U C87G C114G C131U A142C,≤ -4.2

row,Variant,polymerase ribozyme fitness (log ratio)
1,U31C U45G C57U C76A U109G,≤ -4.2
2,C32A A49U G68U C79G C85U U127G,≤ -4.2
3,A30G A52C U53A C54G C57U G94C C96G U144A,≤ -4.2
4,A30U C32U C72A C96G A120U G124A G128A,≤ -4.2
5,A30U A49U G84A A107U A121U G133C,≤ -4.2
6,C32G C93U C99G G117C A137G U144G,≤ -4.2
7,A30G C87U A110U C131A G136U G141U,≤ -4.2
8,A30U A66U C85U A106C,≤ -4.2
9,A30C G92C G126A,≤ -4.2
10,A30U U144A,-3.67
11,C32G G94C,-4.18
12,C32G C63G C85G C93G A120U U127G U146C A147U,≤ -4.2
13,C32A A37U U56G G80C G81A C105G A122C C123A,≤ -4.2
14,U31C U82G C95A U151G,≤ -4.2
15,A30C C35U G86A U90G,≤ -4.2
16,U31G C57A A73C C87G C96G C116G A142U,≤ -4.2
17,U31C G50C C69G C132G G143U U146C,≤ -4.2
18,U31C C54A C69A G94A A115U U148A U151G,≤ -4.2
19,U31A C54G C57A C85G C123U,-3.47
20,A29U U77A C96U G141C U145C,≤ -4.2
21,A29U U111C C114G G140U,≤ -4.2

row,Variant,polymerase ribozyme fitness (log ratio)
1,A30C A40C U45G C76G C87U C116A C125A U148G,≤ -4.2
2,U31A U55G C93G A110C A115U C123G,≤ -4.2
3,A30U C35A C131G,≤ -4.2
4,A30C C85U A115U U145C,≤ -4.2
5,U31C A91C A97G U104G,≤ -4.2
6,A30C G48C G50U A98G A107G C118U A120C G141U,≤ -4.2
7,A30U C32U G48A C51U U56G C76U,≤ -4.2
8,C32G A52U C99U A106G G124U C131A,≤ -4.2
9,A30U C87U G92A C99G U102C G141C,≤ -4.2
10,U31C U56A G88A C95A C149U,≤ -4.2
11,A30U C32G C54A C57G C99U A107G,≤ -4.2
12,U31A U44G A52C C57U G80C U90A C96A U111G,≤ -4.2
13,A30G U53C U90G A91U U134C,≤ -4.2
14,A29U U31G A47C U61A G81A C95U G100U,≤ -4.2
15,U31G C36G A52U G58U C85U A97G A150G,≤ -4.2
16,U31C U33G A39G C114U G126A,≤ -4.2
17,U31C C57G C87U U102A G136A,-0.199
18,U31C C63G G83A C96U,1.61
19,A30C C36A C79G C85G C103G G124A U135G,≤ -4.2
20,U31G C54U U101C,-0.138
21,A30U U44A C51A C85U U101A G117U G133U,≤ -4.2

row,Variant,polymerase ribozyme fitness (log ratio)
1,A30U A39C U61A G94C A121U C125U G141A,≤ -4.2
2,U31G A91G C108U C118A U144G A150C,≤ -4.2
3,A30U C36U G58U G83C C87U U104G A115U U146G,≤ -4.2
4,A30U G42A C85U A89G C99A A107C A122U C125A U144C C149A,≤ -4.2
5,A29U U102A,≤ -4.2
6,U31G A60C G62C C69G C96U,≤ -4.2
7,U31G A52G C114U C125U U144C U148A,≤ -4.2
8,U31C U44A C54A C76G C95G C105G A107G,-4.01
9,A30U U78A C96U U102G,≤ -4.2
10,A30G U55A C79G G81A,≤ -4.2
11,A30C G86U,≤ -4.2
12,U31C G46C G92A,-3.48
13,A29U U53G G81A G88C,≤ -4.2
14,A29U U134A,≤ -4.2
15,A30G U55G C57A U77G G94U C108U,≤ -4.2
16,C32G C51U G58C A97U C99U A113U G140A A147C,≤ -4.2
17,A30U G68U G83U U109G U139A,≤ -4.2
18,A30G G42A,≤ -4.2
19,A30G G86C A147C,≤ -4.2
20,A29U U45G C54G A91U C129G U148G,≤ -4.2
21,A30U A52G G81A,≤ -4.2

# Source: the RNAGym collection of RNA variant scans (doi:10.1073/pnas.2313332121)
